Assay results taken from US5883097A, “Soluble azole antifungal salt” (Schering Corporation, priority 1998, dated 1999).

Tested on: Candida, other yeasts, dematophytes, Aspergillus and opportunistic fungi
Experiment: In vitro antifungal activity, broth dilution, various fungi
Type: cell-based
Settings: SDB and EMEM, MIC 24, 48, 72 h, MFC 48, 72 h

Q: How did the “in vitro antifungal activity” value turn out when `CCC(C(C)O)n1ncn(-c2ccc(N3CCN(c4ccc(OCC5COC(Cn6cncn6)(c6ccc(F)cc6F)C5)cc4)CC3)cc2)c1=O` [compound of formula II, -(2 R-cis)-4-[4-[4-[4-[[-5-(2,4-Difluorophenyl)-tetrahydro-5-(1 H-1,2,4-triazol-1-ylmethyl)furan-3-yl]methoxy]phenyl]-1-piperazinyl]phenyl]-2-4-dihydro-2-[(1 S)-ethyl-2(S)-hydroxypropyl]-3 H-1,2,4-triazol-3-one] was run?
A: The value was “broad spectrum antifungal activity”.
